Test results taken from the RNAGym collection of RNA variant scans (doi:10.7554/elife.90254).
The source gives no read counts; variants with many changes may rest on few reads.

B1: LINE1-full (parent)
chain: UACGUAGGUGGUUUUCCCCUGAUAGUGCUAAGGGGGCCUGGAAGUUUGGACUGGGCAGAGCUCAACACAGCGUGGCAAAGUGGCUGUGGCUAGACUGCCUCUCUGGAUUCCUCGUCACUCAGCAGGGCAUCUCUGAGAGAAAUGCC

Variants of: B1
Test: self-cleavage, relative activity (ratio to wild type); higher = more cleavage; in vitro, sequencing; the parent is a self-cleaving ribozyme

Variant	self-cleavage
C113G A124G A136G A140G	1.8
U12G U87C U96C U132C	0
C17U A59G U104A A121G U130A	0
U1C U73A A78G	0.25
U52A U73A A138U	1.92
A2G U15C A69U U87C U104C U115A	0
U9A U20C G27A A59U	0.26
U45C A59G U134C A138G	0
U5C G35A U47C U102C C103U	1.96
U14C A57G A64C A141G	0.11
U14C U39C A92G	0.17
U12G U45A A77G C99U A124G	1.11
A2U G36C G74U	0.56
A57G A78G A140G	0.37
U12C A57G A142G	1.5
A77U U109C U134G	0.32
U87A A94G U134A	0.14
G55U U108G A141G	0.09
A22G G83U A94G	0.21
U81A C128U A142G	2.09
G7U A57U U73C G89A	0.05
U9C U13C A43G U73G U115A	0.48
A59U U100C U115C	0.88
A117U A121G U143C	1.31

Variant	self-cleavage
A31G U46C U81C A117C	0
U5C U20C U109C A129G U130C	0
U45C U47A A94G A121C	0.75
U15A A50U U143A	1.04
U9A U12C U14C G75U A78U A117U C145A	1.46
A59G A67G U108C	0
U15A U20C U91C U96A U108C A142G U143C	0
U26C A107G A136G	1.74
U5A U14C U134C	0.76
C37U A69G G135A A142G	0.12
U29A U46C C95U A142G	0.5
A94U A129G A138G	0.49
U14A A107G C113A	0.77
U9A A43G A78G	0.38
U45C U87A U112C	0.17
U96A A121G G125C	0.08
U15C G55C A59U G88A U112C A136U U143C	0.02
A77G U115A A138G	2.49
U26C U104A A141G	1.25
A24G U115C A138G	1.72
A50U C90U A136U	0.05
U45C A59G U119C	0.17
U62C G74A U109A A142G	0.02
U20A U26C A50G A77U	0.89

Variant	self-cleavage
U5C U39A A129G	1.5
U14C U45C U87A	0.2
U14C U91C U115C	0.48
G48A U96C A129U U132C A138G	0.14
U12G U39C U143A	0.4
U13G A42G A69G U81C	0
U45C U85C U109A	0.13
U12G A30U C61U U87C	0.13
U87A C98U U130C A136G	0.02
U9C C63U A79G U87G	0.25
A64G U73A U102A	0.22
G34A C99U U132C	0.38
A67G U81A U100C G126A A141G	1.64
G10A G32A U91G A107U C123U A129G	0.02
U14A U62C U132C	0.08
G4C U13C C68U U119C	1.6
U9C A43G G58A A79G A117G G125U	0.18
A43G U73A U112C A117G U134C	1.41
A57U U112A U143C	0.11
G4A C95U U96A	0.13
C90U U104C U119A	0.02
U14A A42G A78G	0.68
U20G A77U U104C	2.51
U13C A57G A138U	0.67

Variant	self-cleavage
U14A U91C A117G	0.66
A50G A117U A124G	1.02
U13C U23C A50U C113U C131U	1.33
G33U U100C U108C U130C U134A	2.09
U1C U47C U85C C90U U100A U112C A129U U143C	0.06
U47C A65C U85A A92G U109C G114U	0
U12G U15A A77G A121G G144A	1.11
U47C G53U A142G	1.41
U5C U45A A50U	0.94
U12C A42G U46C G58A U81C A140G	0
U15C G25U U115C	1.05
U45A U52A A92G A140G A141G	0.08
A50G A121G U132C	0.61
U102C U134C G135U	1.34
A2G U5A A67G U104C A140G	1.84
U14C A43G U45C A50G C71U A142G	0.26
U12C A57U G86C U102C A117C	0.18
A65G U81A U85C	0
A78G A129U A138G	1.3
G35A A77U U104A U132C	0.73
U14C U47C C71A U85C U109A A141U	0.06
U39A U119C C128A U132C U134C	1.38
U12C A22G G33A A50U U143A	0.55
U73C C103U U104C	1.94

Variant	self-cleavage
U52A U115G A129G	2.01
A2G G10A A31C G97A G144A	0.53
U1C U134C A136G	1.19
U9C A94U A107G	0.11
A22G C90G U143A	0.14
U62C U73A C103A A121G	0.01
A79G G80U A121U	0.76
A2G U12C G36U U87C	0.56
G10A A43G U134C	0.52
U46A U47C U73A	1.25
U13C G25U C51U C68U	0.44
U91C U100C A117U	1.39
A50U U112A U115C	1.45
A30G G33A A136G	1.36
U62C A79U C99A U130C A138U	0.03
A57G A92G A107G U115A	0
U39C A67U U81A	0.06
A6G U47C U73A	2.22
U13A U45C U91A	0.6
U45A A69U U108C U119A	0.05
U45A A79G C123U A140G	0.69
U12G A42G U52A U81A	0.99
A30G U96A U119A	0.15
A6G U29C U46C A117U U134C	0.74

Variant	self-cleavage
C19U A22G G125A	0.72
G7A U13C U47C G114A	0.9
U26A U73C U85A	0.18
U39C A59G G82A A107G	0.11
U46C A57U G89A	0.02
U9A A24G G88A	0.14
U13A U46C G72A A79G	0.95
G54U A57U A79G U104C A142G	0.09
G34A U108C G114A A138G	1.66
U96C U100A A140G	0
U13C U39A U115A	1.63
U15C U23A A136G	1.56
A50U C71U A124U	0.36
A24G U47A U96C	0
U87C A92U U132C	0.22
U13C A22G G49C A65G G106A	0.14
U5A G41A U115C	0.86
U26C G72A A141G	1.59
U14C U39C U73C	1.17
U13C C37G A141G C146U	1.05
A2G U47A G58U A65G U119G	0.12
U9C U13A A129G	1.19
U9C U26C A78G A79G	1.53
A107U A129G U134C	1.7

Variant	self-cleavage
G75A A78U U104C A107G G114U A141G	2.93
U12G G32A U62G A117G	0.94
A31G U39C U102A C128U	0.74
U20C A43U A142G	1.84
A22G G35A A117G	1.27
U12A A57G A94G	0.28
U45C A77U U81A U115C U134C	2.68
C71A U73A U81C U115C	0.12
G10A A59G C111U A138G	0.11
U12C A22U A136G	0.78
G35A U47A U73A U96C	0.03
G32A A50U A65G C128U	0.04
G11A U20A U47C	1.55
G105U U130A A141G	1.21
U1C C18U U134G	0.99
U5C U45C A50U U108C U115A	0
U87A G106U A129G	0.05
G34U U45C G49A U108C	2.02
A22C A57U A64C A107U	0.07
A22G A138G A142G	1.57
U39C A59G A67G	0.16
U20A U47C U130C	1.15
U73C U109A G122U	1.56
